Reference: PubChem BioAssay AID743279 (National Center for Advancing Translational Sciences (NCATS), 2014)
In all, about 360,000 compounds went through this assay and about 17,000 (4.7%) were called active. Inconclusive results, whose numbers are uncertain, are shown with a selection of clear calls. Rule as the data show it: active = activity change below about -50%; inconclusive = mostly about -30% to -49%; inactive = weaker than that.
% is scaled to controls: 0 for no effect and ±100 for the full control effect.

Assay: qHTS for Inhibitors of Inflammasome Signaling: IL-1-beta AlphaLISA Primary Screen
Details: THP-1 LPS/ATP IL-1B secretion, 16 h; at 57.5 µM, stronger effect = lower value
How it was run: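 THP-1 cells pretreated 1 hr with compounds (up to 57.5 uM final), then stimulated with LPS (250 ng/mL final) plus ATP (1.25 mM final); secreted IL-1B measured by AlphaLISA after 16 hr, decreased signal indicating inhibition.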
In the case of `Cc1cccc(OCCN2C(=O)C(=O)c3cccc(C)c32)c1`, the activity change is reported as inconclusive: -37.3%. In the case of `COc1ccc(OC)c(S(=O)(=O)N2CCN(C(=O)c3cc(C4CC4)nn3-c3ccccc3)CC2)c1`, the activity change is reported as inconclusive: -48.2%. For `CC(C)CN(CCCNC(=O)CN1C(=O)COc2ccc(S(=O)(=O)N3CCCCCC3)cc21)CC(C)C`, the activity change was inconclusive: -39.1%. For `CC1CCN(c2nc(/C=C/c3ccccc3)nc3ccccc23)CC1`, the activity change was inactive: -30%. In the case of `N#Cc1c(NCCCO)nc(NCc2ccccc2)c2c1CCN(Cc1ccccc1)C2`, the activity change is reported as inconclusive: -32%. In the case of `COC(=O)c1[nH]c2cccc(C)c2c1NC(=O)CN1CCN(c2ccccc2OC)CC1`, the activity change is reported as inconclusive: -36.3%. For `COCCn1c(-c2ccc(Cl)cc2)cnc1SCC(=O)NCCc1ccc(OC)c(OC)c1`, the activity change was inconclusive: -35.1%. With `CC(=O)Nc1ccc(S(=O)(=O)Nc2nc3ccccc3nc2N2CCOCC2)cc1` the activity change was inactive: 9.15%. With `N#C/C(=C\c1ccc(N2CCOCC2)o1)C(=O)Nc1ccc(O)cc1` the activity change was active: -55.3%. For `O=[N+]([O-])c1ccc(/C=N/N2CCN(Cc3ccccc3)CC2)cc1`, the activity change was inconclusive: -37.1%. For `COc1ccc(-c2nn(-c3ccccc3)cc2C(=O)N2c3ccc(C)cc3C3CN(C)CCC32)cc1` (stereo not given), the activity change was inconclusive: -49.9%. With `CCOc1cc(N(CC)CC)ccc1/C=C(/C#N)c1nc2ccccc2[nH]1` the activity change was inconclusive: -37.5%. In the case of `NC(N)=Nc1nc2ccc([N+](=O)[O-])cc2[nH]1`, the activity change is reported as inconclusive: -42.8%. For `O=C(Nc1cccc(-c2cccc(F)c2)c1)C1CCN(CC2CCOC2)CC1` (stereo not given), the activity change was inconclusive: -37.1%. For `CC[C@]12c3[nH]c4ccccc4c3CCN1C(=O)C(CC(=O)NCCc1ccccn1)C[C@@H]2C(=O)N1CCN(C(=O)c2ccco2)CC1` (stereo not given in full), the activity change was inactive: 34.3%. For `CC(C)(C)OC(=O)NCCCC[C@H](NC(=O)c1nc[nH]c1C(=O)NC1CCN(C(=O)OC(C)(C)C)CC1)C(=O)OC(C)(C)C`, the activity change was inconclusive: -35.4%. With `CCc1ccccc1NC(=O)CCN1C(=O)C2CC=CCC2C1=O` (stereo not given) the activity change was inactive: -3.55%. In the case of `O=C(COc1ccc2c(c1)oc(=O)c1ccccc12)NCCCN1CCOCC1`, the activity change is reported as inconclusive: -39.2%. In the case of `O=S(=O)(NCCC1=CCCCC1)c1ccc(OC(F)(F)F)cc1`, the activity change is reported as active: -90.9%. For `CN(c1ccccc1)S(=O)(=O)c1cc(C(=O)N2CCN(c3ncccn3)CC2)ccc1Cl`, the activity change was inconclusive: -34.2%. For `O=C(Nc1cccnc1)c1cc(-c2ccc(Br)cc2)nc2ccccc12`, the activity change was active: -77.2%. For `Cc1nc(Nc2ccccc2Br)c2nnn(Cc3ccccc3)c2n1`, the activity change was inactive: -15.9%. For `COc1ccc(CCC(=O)OCC(=O)Nc2c(C)n(C)n(-c3ccccc3)c2=O)cc1`, the activity change was inactive: 3.25%. For `Cn1c(SCC(=O)Nc2ccccc2)nc2ccccc2c1=O`, the activity change was inconclusive: -49.7%. With `COc1ccccc1C1CC(c2ccc(NS(C)(=O)=O)cc2)=NN1S(=O)(=O)c1ccccc1` (stereo not given) the activity change was inconclusive: -45.2%. In the case of `C=CCN(c1ccccc1)S(=O)(=O)c1cccc(C(=O)NCC(c2ccc(OC)cc2)N2CCCCC2)c1` (stereo not given), the activity change is reported as active: -65.8%. In the case of `CCOC(=O)c1ccc(NC(=O)c2cc(C)nn2-c2ccccc2)cc1`, the activity change is reported as inactive: -2.65%. For `Nc1nc(NCCO)nc(NC2CCCCC2)c1[N+](=O)[O-]`, the activity change was inconclusive: -37.9%. With `CCOC(=O)Cc1ccc(Nc2nc(NCc3cccs3)nc3ccsc23)cc1` the activity change was active: -83.9%. For `COC1=CC(=O)OC(C)(c2ccccc2)C1` (stereo not given), the activity change was inactive: 9.74%. In the case of `O=C(Nc1ccc(Cl)c(S(=O)(=O)N2CCOCC2)c1)c1cc(-c2ccccn2)nc2ccccc12`, the activity change is reported as inconclusive: -39.5%. With `CN1CCN(c2ccccc2NC(=O)c2cc3ccccc3o2)CC1` the activity change was inconclusive: -39.3%. In the case of `COc1cc(C2C(C(=O)c3ccc(C)o3)=C(O)C(=O)N2c2cc(C)on2)ccc1OCc1ccccc1` (stereo not given), the activity change is reported as inactive: 8.65%. For `O=C(c1ccc([N+](=O)[O-])s1)N1CCCc2ccccc21`, the activity change was inconclusive: -44.1%. For `O=C(Cc1cc(=O)[nH][nH]1)N/N=C/C=C/c1ccccc1`, the activity change was inconclusive: -43.1%. For `COc1ccc(CNC(=O)C(C)N2C(=O)NC(c3ccccc3)(c3ccccc3)C2=O)cc1` (stereo not given), the activity change was inconclusive: -36.8%. For `CCOC(=O)C1=C(C)Nc2ccc(C)cc2S1`, the activity change was inconclusive: -35.6%. With `COC(=O)[C@@]1(Cc2ccc(F)cc2)[C@H]2c3cc(C(=O)N4CCCC4)n(Cc4ccc(S(C)(=O)=O)cc4)c3C[C@H]2CN1C(=O)c1ccccc1` the activity change was inactive: -21.5%. In the case of `COc1ccc(S(=O)(=O)N2CCOCC2)cc1NC(=O)COC(=O)CC1CC2CCC1C2` (stereo not given), the activity change is reported as inactive: 15.1%. In the case of `COc1ccccc1C(NC(=O)C1CCN(CCc2ccc(Br)cc2)CC1)c1ccccn1` (stereo not given), the activity change is reported as inconclusive: -41.8%. In the case of `COc1ccc(C(=O)Nc2ccccc2-c2ccccc2)cc1Cl`, the activity change is reported as inconclusive: -32.5%. For `COc1ccc(-c2ccc3c(c2)S(=O)(=O)c2cccc(C(=O)NC[C@@H]4CCCO4)c2C3=O)cc1OC`, the activity change was inactive: 4.3%. With `O=C(NNc1c2ccccc2nc2ccccc12)C(O)c1ccccc1` (stereo not given) the activity change was inconclusive: -30.7%. For `COc1cc(-c2nc(-c3ccccc3)c(-c3cccs3)[nH]2)cc(OC)c1O`, the activity change was inconclusive: -36.4%. In the case of `CCc1nc2ccc(C(=O)Nc3ccc(OC)c(OC)c3)cn2c1N(C)CCC(C)C`, the activity change is reported as inconclusive: -34.8%. With `C#CCOCCOCCOCCNc1nc(N2CCN(C(=O)CCCCCCCCCCNC(=O)Cn3cc(C[C@@H](C)O)nn3)CC2)nc(N2CCN(C(=O)CCCCCCCCCCNC(=O)[C@H](CCCCN)n3cc(CCCC(=O)O)nn3)CC2)n1` the activity change was inconclusive: -45.2%. In the case of `CC(NC(=O)c1c(F)cccc1Cl)c1ccc(-n2ccnc2)cc1` (stereo not given), the activity change is reported as inactive: 10.7%. In the case of `COc1cc(/C=N/NC(=O)CC#N)ccc1Oc1nc(Cl)ncc1F`, the activity change is reported as inconclusive: -34.5%. For `O=C(CCN1CCCCC1)N=Nc1c(O)[nH]c2ccccc12`, the activity change was active: -74.6%. With `CCOc1cc(C(=O)N2CCC(CC3CC(c4cccc(Br)c4)=NO3)(C(=O)NCC3CCCCC3)CC2)cc(OCC)c1OCC` (stereo not given) the activity change was inconclusive: -30.6%.
